{
  "source": "the supplement of paper PMC4604168 (melanoma cell lines)",
  "note": "The other results are listed elsewhere or left out. Repeats are few or missing, and single values can be far off.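 Further: cell number obtained by counting DAPI-stained nuclei in high-throughput microscope images with image analysis software, screen run in 1,536-well plates.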",
  "data": [
    {"system": "WM1716", "assay": "cell count relative to DMSO control; melanoma cells; higher = more viable cells", "details": "library dose: low library concentration; 72 h", "units": {"cell count": "%"}, "values": [
      {"smiles": "C[C@]12O[C@H](C[C@]1(O)CO)n1c3ccccc3c3c4c(c5c6ccccc6n2c5c31)CNC4=O", "note": "[Lestaurtinib] + O=C(Oc1ccc([N+](=O)[O-])cc1)N1CCC(C(O)(c2ccc3c(c2)OCO3)c2ccc3c(c2)OCO3)CC1 [JZL184] (first compound 0.004 µM, partner dose 1 µM)", "cell count": 97.9},
      {"smiles": "C[As](C)SC[C@H](NC(=O)CC[C@H](N)C(=O)O)C(=O)NCC(=O)O", "note": "[Darinaparsin] + Cc1cc([N+](=O)[O-])ccc1NS(=O)(=O)c1cc(Cl)ccc1Cl [FH535] (first compound 0.4 µM, partner dose 1 µM)", "cell count": 81.4},
      {"smiles": "C[C@]12O[C@H](C[C@]1(O)CO)n1c3ccccc3c3c4c(c5c6ccccc6n2c5c31)CNC4=O", "note": "[Lestaurtinib] + CN(C)S(=O)(=O)c1ccc2c(c1)/C(=C/c1cc3c([nH]1)CCCC3)C(=O)N2 [SU6656] (first compound 0.004 µM, partner dose 0.4 µM)", "cell count": 107},
      {"smiles": "Cn1cc(C2=C(c3cn(C4CCN(Cc5ccccn5)CC4)c4ccccc34)C(=O)NC2=O)c2ccccc21", "note": "[Enzastaurin] + CNC(=O)c1cc(Oc2ccc(NC(=O)Nc3ccc(Cl)c(C(F)(F)F)c3)cc2)ccn1 [sorafenib] (first compound 0.8 µM, partner dose 0.4 µM)", "cell count": 90},
      {"smiles": "C[C@]12O[C@H](C[C@]1(O)CO)n1c3ccccc3c3c4c(c5c6ccccc6n2c5c31)CNC4=O", "note": "[Lestaurtinib] + CCCCCCCCCCCC1=C(O)C(=O)C=C(O)C1=O [Embelin] (first compound 0.004 µM, partner dose 1.2 µM)", "cell count": 113},
      {"smiles": "C[C@]12O[C@H](C[C@]1(O)CO)n1c3ccccc3c3c4c(c5c6ccccc6n2c5c31)CNC4=O", "note": "[Lestaurtinib] + CCc1ccc(CCOc2ccc(CC3SC(=O)NC3=O)cc2)nc1 [pioglitazone] (first compound 0.004 µM, partner dose 2 µM)", "cell count": 96.6},
      {"smiles": "Cn1cc(C2=C(c3cn(C4CCN(Cc5ccccn5)CC4)c4ccccc34)C(=O)NC2=O)c2ccccc21", "note": "[Enzastaurin] + CC1(C)NC(=O)N(c2ccc([N+](=O)[O-])c(C(F)(F)F)c2)C1=O [nilutamide] (first compound 0.8 µM, partner dose 1 µM)", "cell count": 100},
      {"smiles": "N.N.[Cl][Pt][Cl]", "note": "[cisplatin] + COc1cc(Nc2ncc(F)c(Nc3ccc4c(n3)NC(=O)C(C)(C)O4)n2)cc(OC)c1OC [Tamatinib] (first compound 1.6 µM, partner dose 0.4 µM)", "cell count": 85.6},
      {"smiles": "C[C@]12O[C@H](C[C@]1(O)CO)n1c3ccccc3c3c4c(c5c6ccccc6n2c5c31)CNC4=O", "note": "[Lestaurtinib] + O=C(O)c1ccc(-c2c[nH]c3ncc(-c4ccccc4)cc23)cc1C1CCCC1 [GSK650394] (first compound 0.004 µM, partner dose 0.16 µM)", "cell count": 100},
      {"smiles": "Cn1cc(C2=C(c3cn(C4CCN(Cc5ccccn5)CC4)c4ccccc34)C(=O)NC2=O)c2ccccc21", "note": "[Enzastaurin] + NC(=O)Nc1cc(-c2cccc(F)c2)sc1C(=O)N[C@H]1CCCNC1 [AZD7762] (first compound 0.8 µM, partner dose 0.02 µM)", "cell count": 84.6},
      {"smiles": "Cn1cc(C2=C(c3cn(C4CCN(Cc5ccccn5)CC4)c4ccccc34)C(=O)NC2=O)c2ccccc21", "note": "[Enzastaurin] + COc1ccc2c(c1)CCC1C2CCC2(C)C(NCCCCCCN3C(=O)C=CC3=O)CCC12 [U73122] (first compound 0.8 µM, partner dose 0.4 µM)", "cell count": 89.4},
      {"smiles": "C[As](C)SC[C@H](NC(=O)CC[C@H](N)C(=O)O)C(=O)NCC(=O)O", "note": "[Darinaparsin] + c1cc(-c2cnn3cc(-c4ccc(OCCN5CCCCC5)cc4)cnc23)ccn1 [Dorsomorphin] (first compound 0.4 µM, partner dose 0.4 µM)", "cell count": 93.5},
      {"smiles": "N.N.[Cl][Pt][Cl]", "note": "[cisplatin] + COC(=O)c1sccc1S(=O)(=O)Nc1ccc(Nc2ccccc2)cc1OC [GSK0660] (first compound 1.6 µM, partner dose 1 µM)", "cell count": 112},
      {"smiles": "C[As](C)SC[C@H](NC(=O)CC[C@H](N)C(=O)O)C(=O)NCC(=O)O", "note": "[Darinaparsin] + Cc1nc(Nc2ncc(C(=O)Nc3c(C)cccc3Cl)s2)cc(N2CCN(CCO)CC2)n1 [dasatanib] (first compound 0.4 µM, partner dose 0.004 µM)", "cell count": 90.9}
    ]}
  ]
}
